{"source": "PubChem BioAssay AID504832", "about": "(National Center for Advancing Translational Sciences (NCATS), 2011)", "note": "Several values for one entry are separate records, joined by “and”; a condition that tells them apart may be missing. Identical values can stand only once. Out of some 310,000 compounds screened, about 18,000 (5.8%) were called active. The inconclusive results got no clear call from the source; some entries with a clear call stand among them for comparison. The call rests on the fitted dose curve; in most records, active means well fitted inhibition curve with a large enough effect; inconclusive means small, poorly fitted or top-dose-only effect, or another doubt; inactive means no such curve, though single readings can be large or run the other way. Where the call is inconclusive, the potency comes from a doubtful curve fit. On the % scale 0 is the no-effect control and ±100 the full control effect; potency means the concentration at half of the fitted maximal effect; tags describe the fitted curve by direction and shape."}
{"assay": "Primary qHTS for delayed death inhibitors of the malarial parasite plastid, 48 hour incubation", "details": "P. falciparum luciferase growth in erythrocytes; series mostly up to 28.7 µM; activity change, negative = inhibition: at the top concentration", "how_it_was_run": "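Here the parasites carry a stable luciferase gene and grow inside erythrocytes in Albumax-based RPMI medium with compound for one erythrocytic cycle. Activity is scored as loss of luminescent signal.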"}
{"smiles": "CC(Oc1ccc(F)cc1)C(=O)Nc1cc(S(=O)(=O)N2CCOCC2)ccc1N1CCCCC1", "note": "(stereo not drawn)", "Potency": "active: 4.65 µM"}
{"smiles": "COc1cccc(CN(C)C(=O)c2ccc(NS(=O)(=O)c3ccc(F)cc3)cc2)c1OC", "Potency": "inconclusive: 10.4 µM [inhibitor, single point]"}
{"smiles": "CCOc1ccc2nc(-c3cc(NC(C)=O)ccc3O)sc2c1", "activity change, negative = inhibition": "inactive: 168%"}
{"smiles": "CCOC(=O)C1(C)NC(c2ccc(OC)cc2OC)C2C(=O)N(CC)C(=O)C21", "note": "(stereo not drawn)", "activity change, negative = inhibition": "inactive: 28.8%"}
{"smiles": "O=C(/C=C/c1cn(CC(O)CN2CCCCC2)c2ccccc12)c1ccccc1", "note": "(stereo not drawn)", "Potency": "active: 13.1 µM"}
{"smiles": "COc1ccc(C(=O)N/C(=C\\c2cn(C)c3ccccc23)C(=O)NCCCN2CCOCC2)cc1", "Potency": "inconclusive: 10.4 µM [inhibitor, single point]"}
{"smiles": "CN(C)c1ccc(C2C3=C(CCCC3=O)OC3=C2C(=O)CCC3)cc1", "Potency": "inconclusive: 9.28 µM [inhibitor, single point]"}
{"smiles": "CC(=O)N1CCN(c2ccccc2NC(=O)COc2ccccc2C)CC1", "Potency": "inconclusive: 14.7 µM [inhibitor, single point]"}
{"smiles": "Cc1ccc(N(CC(=O)NC2CCCCC2C)S(=O)(=O)c2c(C)noc2C)cc1", "note": "(stereo not drawn)", "Potency": "inconclusive: 11.7 µM [inhibitor, partial curve]"}
{"smiles": "Cc1cccc(C(C)C)c1NC(=O)CN(C)Cc1cccc(F)c1", "Potency": "inconclusive: 18.5 µM [inhibitor, single point]"}
{"smiles": "Cc1ccc(S(=O)(=O)NC(CC(C)C)C(=O)NCC(C)(C)N2CCOCC2)cc1", "note": "(stereo not drawn)", "activity change, negative = inhibition": "inactive: 16.8%"}
{"smiles": "O=C(NCCCNC(=O)c1ccc(F)cc1)c1ccc(F)cc1", "activity change, negative = inhibition": "inactive: 16.8%"}
{"smiles": "O=P(c1ccccc1)(c1ccccc1)c1cc(S(=O)(=O)O)ccc1O", "activity change, negative = inhibition": "inactive: -13.7%"}
{"smiles": "CCc1nc(SCC(=O)NCC2CCCO2)c2c(=O)n(C)c(=O)n(C)c2n1", "note": "(stereo not drawn)", "activity change, negative = inhibition": "inactive: 0.655%"}
{"smiles": "Cc1ccc(-c2cc(-c3nnc(SCC(=O)NC(C)C(C)C)n3N)c3ccccc3n2)cc1", "note": "(stereo not drawn)", "Potency": "inconclusive: 10.4 µM [inhibitor, partial curve, poor fit]"}
{"smiles": "CC(=O)Nc1ccc(S(=O)(=O)N(C)c2ccc(OCC(=O)OCC(=O)Nc3ccc(OC(F)F)cc3)cc2)cc1", "activity change, negative = inhibition": "inactive: -4.7%"}
{"smiles": "O=C(COc1ccc(S(=O)(=O)N2CCOCC2)cc1)Nc1ccc2c(c1)OCCO2", "Potency": "inconclusive: 9.28 µM [inhibitor, partial curve]"}
{"smiles": "COc1ccc(CNC(=O)CS(=O)Cc2nc(-c3ccc(OC)c(OC)c3)oc2C)cc1", "note": "(stereo not drawn)", "activity change, negative = inhibition": "inactive: -15.6%"}
{"smiles": "COC(=O)c1cc(OC)c(OC)cc1NC(=O)CCCCCN1C(=O)CCC1=O", "activity change, negative = inhibition": "inactive: -10.9%"}
{"smiles": "Cc1cccc(Oc2nc3ccccn3c(=O)c2/C=C(\\C#N)C(=O)NC2CCS(=O)(=O)C2)c1C", "note": "(stereo not drawn)", "Potency": "inconclusive: 18.5 µM [inhibitor, single point]"}
{"smiles": "O=[N+]([O-])c1ccc(C2=Nc3cc(Cl)ccc3OC2)cc1", "Potency": "inconclusive: 18.5 µM [inhibitor, single point]"}
{"smiles": "C=C(CC)C(=O)c1ccc(OCC(=O)O)c(Cl)c1Cl", "Potency": "inconclusive: 19 µM [inhibitor, single point] and inconclusive: 13.1 µM [inhibitor, partial curve, poor fit]"}
{"smiles": "COc1cccc(NC(=O)N2CCC(NC(=O)C3CCCCC3)CC2)c1", "activity change, negative = inhibition": "inactive: 6.74%"}
{"smiles": "COc1ccc(C(=O)C(CO)Oc2ccccc2OC)cc1OC", "note": "(stereo not drawn)", "activity change, negative = inhibition": "inactive: 12.4%"}
{"smiles": "Cc1ccc(-c2ccc(=O)n(Cc3cccc(Br)c3)n2)cc1", "activity change, negative = inhibition": "inactive: -1.48%"}
{"smiles": "COc1ccccc1N(CC(=O)N1CCN(c2ccc(F)cc2)CC1)S(=O)(=O)c1ccc(C)cc1", "Potency": "inconclusive: 10.4 µM [inhibitor, single point]"}
{"smiles": "Cc1ccc(C)c(N2CCN(S(=O)(=O)c3c(C)noc3C)CC2)c1", "Potency": "inconclusive: 8.28 µM [inhibitor, partial curve]"}
{"smiles": "O=C(N/N=C/c1c[nH]c2ccccc12)c1cccs1", "activity change, negative = inhibition": "inactive: 78%"}
{"smiles": "O=C(COc1ccc2ccccc2c1Br)Nc1ncn[nH]1", "activity change, negative = inhibition": "inactive: 33.2%"}
{"smiles": "COc1ccc(S(=O)(=O)c2nnn(-c3cccc(OC)c3)c2N)cc1", "Potency": "inconclusive: 8.28 µM [inhibitor, single point]"}
{"smiles": "COCc1c(C(=O)N/N=C(\\C)c2ccc(Cl)s2)nnn1-c1nonc1N", "activity change, negative = inhibition": "inactive: -17.9%"}
{"smiles": "CCc1cc(-c2n[nH]c(C)c2-c2nc(C)cs2)c(O)cc1OC", "Potency": "inconclusive: 9.28 µM [inhibitor, partial curve, poor fit]"}
{"smiles": "Nc1nc(COC(=O)CCC(=O)c2ccc(Cl)cc2)nc(Nc2ccccc2)n1", "Potency": "inconclusive: 11.7 µM [inhibitor, single point]"}
{"smiles": "O=C(/C=C/c1ccco1)Nc1ccc(F)cc1", "activity change, negative = inhibition": "inactive: 88.1%"}
{"smiles": "CC(C)(C)NS(=O)(=O)c1ccc(CCC(=O)N2CCCCC2)cc1", "Potency": "inconclusive: 11.7 µM [inhibitor, single point]"}
{"smiles": "Cc1csc(NC(=O)c2nc3nc(C)cc(C)n3n2)n1", "activity change, negative = inhibition": "inactive: 103%"}
{"smiles": "COc1cccc(NP(=O)(Oc2ccc(Cl)cc2)Oc2ccc(Cl)cc2)c1", "Potency": "inconclusive: 14.7 µM [inhibitor, single point]"}
{"smiles": "CCc1ccc(S(=O)(=O)Nc2ccc(O)c3c(=O)cc(-c4ccccc4Cl)oc23)cc1", "Potency": "inconclusive: 10.4 µM [inhibitor, single point]"}
{"smiles": "COC(=O)C1=C(c2ccc(OC(F)(F)F)cc2)C[C@@H]2CC[C@H]1N2C(=O)NCCCOC(C)C", "Potency": "inconclusive: 10.4 µM [inhibitor, single point]"}
{"smiles": "Cc1ccc(NC(=O)CN2CCN(CCN=CC3=C(O)CC(C)(C)CC3=O)CC2)cc1", "Potency": "inconclusive: 4.15 µM [inhibitor, single point]"}
{"smiles": "Cc1noc(C)c1COc1ccccc1C(=O)N1CCN(S(=O)(=O)c2ccccc2C(F)(F)F)CC1", "Potency": "active: 14.7 µM"}
{"smiles": "CCC(C)NCCOc1ccc(C(C)(C)c2ccccc2)cc1", "note": "(stereo not drawn)", "Potency": "inconclusive: 9.28 µM [inhibitor, single point]"}
{"smiles": "CCC(=O)N/C(N)=N/c1nc(C)c2cc(C)c(C)cc2n1", "Potency": "active: 1.65 µM"}
{"smiles": "COc1cccc(NC(=O)COc2nc3ccccc3nc2C)c1", "activity change, negative = inhibition": "inactive: -9.65%"}
{"smiles": "Cc1ccc(-c2cc[n+](Cc3ccccc3)cc2)cc1", "Potency": "active: 0.928 µM"}
{"smiles": "O=C(NCCCN1CCc2ccccc2C1)C1CCN(c2nnc(-n3cccc3)s2)CC1", "Potency": "active: 4.15 µM"}
{"smiles": "Fc1ccc2c(c1)nnn2C1CCN(Cc2c(Cl)cccc2Cl)CC1", "Potency": "active: 10.4 µM"}
{"smiles": "Cc1cc(C)c(C)c(OCCCCn2cnc3ccccc3c2=O)c1", "Potency": "inconclusive: 8.28 µM [inhibitor, partial curve, poor fit]"}
{"smiles": "Cc1nonc1C(=O)N/N=C/c1ccc([N+](=O)[O-])o1", "Potency": "inconclusive: 18.5 µM [inhibitor, single point]"}
{"smiles": "O=C1CCc2cc(S(=O)(=O)N3CCN(c4cccc(Cl)c4)CC3)ccc2N1", "Potency": "inconclusive: 0.0738 µM [inhibitor, full curve, poor fit]"}
{"smiles": "COc1cccc(OC)c1C(=O)Nc1ccc(N2CCN(C(=O)c3cccs3)CC2)cc1", "Potency": "inconclusive: 0.0037 µM [inhibitor, full curve, poor fit]"}
{"smiles": "CCCCCCC(=O)Nc1nc(C)c(-c2csc(Nc3ccc(Cl)cc3)n2)s1", "Potency": "active: 10.4 µM"}
{"smiles": "Cc1ccc(S(=O)(=O)Cn2nnnc2C(CC(C)C)N2CCN(C)CC2)cc1", "note": "(stereo not drawn)", "Potency": "inconclusive: 10.4 µM [inhibitor, single point]"}
{"smiles": "O=P(COCCOCCOCP(=O)(c1ccccc1)c1ccccc1)(c1ccccc1)c1ccccc1", "Potency": "inconclusive: 7.38 µM [inhibitor, partial curve]"}
{"smiles": "COc1cccc(Cn2c(N)c(C#N)c3nc4ccccc4nc32)c1OC", "Potency": "inconclusive: 5.86 µM [inhibitor, partial curve]"}
{"smiles": "CCCOc1ccccc1NC(=O)c1c(-c2ccccc2)noc1C", "Potency": "inconclusive: 13.1 µM [inhibitor, partial curve]"}
{"smiles": "NC(=O)[C@@H]1CC2(CC(c3cccc(NC(=O)CC(c4ccccc4)c4ccccc4)c3)=NO2)CN1C(=O)c1ccc(Cl)cc1", "note": "(stereo partly drawn)", "Potency": "inconclusive: 11.7 µM [inhibitor, single point]"}
{"smiles": "O=S(=O)(c1cccc(Cl)c1)N1CCCC1", "activity change, negative = inhibition": "inactive: 7.55%"}
{"smiles": "CC1Cc2ccccc2N1CC(=O)Nc1ccc2c(c1)OC(F)(F)O2", "note": "(stereo not drawn)", "Potency": "inconclusive: 18.5 µM [inhibitor, single point]"}
{"smiles": "N#Cc1c(-c2ccccc2)cc(C2CC2)nc1N", "activity change, negative = inhibition": "inactive: -27.9%"}
{"smiles": "Cc1ccc(C)c(CN2CCC(CNC(=O)Nc3ccc(C)c(C)c3)CC2)c1", "Potency": "active: 4.15 µM"}
{"smiles": "CCOC(=O)c1c(NC(=O)/C=C/C(=O)O)sc(C)c1-c1ccc(C(C)(C)C)cc1", "Potency": "active: 1.65 µM"}
{"smiles": "COc1ccc(CC(=O)NCCN2CCCC2)cc1", "activity change, negative = inhibition": "inactive: 74.3%"}
{"smiles": "Cc1ccccc1OCC(=O)OCC(=O)NC1CC1", "activity change, negative = inhibition": "inactive: -24.5%"}
{"smiles": "CC(C(=O)Nc1nccs1)N1C(=O)c2ccccc2S1(=O)=O", "note": "(stereo not drawn)", "activity change, negative = inhibition": "inactive: 2.81%"}
{"smiles": "COc1cc2c(cc1OC)C1CC(=O)C(CC(C)C)CN1CC2", "note": "(stereo not drawn)", "Potency": "inactive"}
{"smiles": "O=C(O)c1ccc(N2CCS(=O)(=O)CC2)cc1", "activity change, negative = inhibition": "inactive: 1.01%"}
{"smiles": "Cc1cccc(-n2c(O)c(C=NC3CCS(=O)(=O)C3)c3ccccc3c2=O)c1", "note": "(stereo not drawn)", "activity change, negative = inhibition": "inactive: -11.4%"}
{"smiles": "COc1ccc(C(CC(=O)N2CCN(c3ccccc3)CC2)c2c(OC)cc(OC)c3ccc(=O)oc23)cc1", "note": "(stereo not drawn)", "Potency": "active: 7.38 µM"}
{"smiles": "Oc1ccc(NCc2cccc(OCc3ccc(F)cc3)c2)cc1", "Potency": "inconclusive: 18.5 µM [inhibitor, single point]"}
{"smiles": "Cc1cc(=O)oc2c3c(cc(OCC(=O)NCC4CCC(C(=O)O)CC4)c12)OC(C)(C)CC3", "note": "(stereo not drawn)", "Potency": "inconclusive: 2.94 µM [inhibitor, full curve, poor fit]"}
{"smiles": "COc1ccccc1NC(=O)Nc1nc(CC(=O)N2CCN(c3ccccc3F)CC2)cs1", "Potency": "inconclusive: 13.1 µM [inhibitor, single point]"}
{"smiles": "O=C(NC1CC1)C1=C[C@@H](c2ccc3c(c2)OCO3)C[C@@H](OCCCCO)O1", "activity change, negative = inhibition": "inactive: 33.8%"}
